We go through three molecules from article PMC4526674.

What all share (conditions): remark: other sources report otherwise
Test [1] deals with T1, TG2 pretreated with the active-site inhibitor DP3-3 (BS3 capture of Fig 2D) (human), P21980.
T1 chain: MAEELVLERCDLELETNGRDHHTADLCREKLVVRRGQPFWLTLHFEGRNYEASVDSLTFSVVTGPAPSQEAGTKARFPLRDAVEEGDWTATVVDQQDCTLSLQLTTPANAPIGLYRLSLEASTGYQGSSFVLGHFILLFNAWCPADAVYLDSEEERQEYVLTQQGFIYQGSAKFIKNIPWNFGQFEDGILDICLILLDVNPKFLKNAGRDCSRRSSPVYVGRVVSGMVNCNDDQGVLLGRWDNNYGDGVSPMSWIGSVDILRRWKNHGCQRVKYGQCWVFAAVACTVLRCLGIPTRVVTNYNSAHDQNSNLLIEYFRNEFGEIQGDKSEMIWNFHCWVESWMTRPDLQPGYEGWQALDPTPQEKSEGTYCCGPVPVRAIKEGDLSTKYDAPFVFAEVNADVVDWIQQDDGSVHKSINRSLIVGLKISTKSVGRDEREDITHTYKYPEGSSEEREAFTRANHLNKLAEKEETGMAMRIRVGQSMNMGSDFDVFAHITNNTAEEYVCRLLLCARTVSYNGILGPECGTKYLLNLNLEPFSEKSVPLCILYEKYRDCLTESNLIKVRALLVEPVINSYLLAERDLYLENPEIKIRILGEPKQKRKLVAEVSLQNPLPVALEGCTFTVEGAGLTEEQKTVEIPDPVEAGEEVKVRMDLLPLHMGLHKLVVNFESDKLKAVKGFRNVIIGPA
Nature of the test: cross-linking; BS3 (0.5 mM) capture of non-covalent complexes; DP3-3-treated protein pre-incubated with 5 mM CaCl2 for 30 min at room temperature in 20 mM HEPES pH 7.5, 150 mM NaCl; SDS-PAGE; both purified.

The target in test [2] is T1, TG2 pretreated with the active-site …. Nature of the test: cross-linking; BS3 (0.5 mM) capture of non-covalent complexes; DP3-3-treated protein pre-incubated with 5 mM CaCl2 for 30 min at 37°C in 20 mM HEPES pH 7.5, 150 mM NaCl; SDS-PAGE; both purified.
The target in test [3] is T2, Full length E. coli-produced TG2 (active) (human), P21980.
T2 chain: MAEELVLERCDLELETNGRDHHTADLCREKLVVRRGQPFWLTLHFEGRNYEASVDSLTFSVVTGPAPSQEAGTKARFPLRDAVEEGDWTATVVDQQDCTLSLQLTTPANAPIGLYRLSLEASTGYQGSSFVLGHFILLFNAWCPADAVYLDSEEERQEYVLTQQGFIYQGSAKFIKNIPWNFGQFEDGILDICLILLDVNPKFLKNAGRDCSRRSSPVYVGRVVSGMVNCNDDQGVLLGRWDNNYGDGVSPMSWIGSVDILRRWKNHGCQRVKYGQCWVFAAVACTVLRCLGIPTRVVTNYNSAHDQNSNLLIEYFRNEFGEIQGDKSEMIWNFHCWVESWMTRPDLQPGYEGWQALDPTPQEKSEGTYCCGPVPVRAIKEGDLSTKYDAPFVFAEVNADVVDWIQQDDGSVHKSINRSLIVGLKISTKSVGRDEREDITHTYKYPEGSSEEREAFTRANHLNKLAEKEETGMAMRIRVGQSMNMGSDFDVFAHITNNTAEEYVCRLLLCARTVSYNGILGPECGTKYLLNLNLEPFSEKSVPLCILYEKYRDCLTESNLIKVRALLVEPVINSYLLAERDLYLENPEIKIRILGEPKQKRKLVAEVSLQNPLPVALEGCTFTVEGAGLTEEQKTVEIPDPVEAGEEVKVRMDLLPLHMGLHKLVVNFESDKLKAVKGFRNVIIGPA
Nature of the test: cross-linking; enzymatic self-crosslinking by TG2's own transglutaminase activity; 5 mM (or 1 mM) CaCl2, 37°C, TBS pH 7.4 (50 mM Tris HCl, 150 mM NaCl); products resolved by 4-20% gradient SDS-PAGE, Coomassie; both purified.

The target in test [4] is T3, Inactive, inhibitor-bound TG2 produced in E. coli (TG2-DP3-3) (human), P21980.
T3 chain: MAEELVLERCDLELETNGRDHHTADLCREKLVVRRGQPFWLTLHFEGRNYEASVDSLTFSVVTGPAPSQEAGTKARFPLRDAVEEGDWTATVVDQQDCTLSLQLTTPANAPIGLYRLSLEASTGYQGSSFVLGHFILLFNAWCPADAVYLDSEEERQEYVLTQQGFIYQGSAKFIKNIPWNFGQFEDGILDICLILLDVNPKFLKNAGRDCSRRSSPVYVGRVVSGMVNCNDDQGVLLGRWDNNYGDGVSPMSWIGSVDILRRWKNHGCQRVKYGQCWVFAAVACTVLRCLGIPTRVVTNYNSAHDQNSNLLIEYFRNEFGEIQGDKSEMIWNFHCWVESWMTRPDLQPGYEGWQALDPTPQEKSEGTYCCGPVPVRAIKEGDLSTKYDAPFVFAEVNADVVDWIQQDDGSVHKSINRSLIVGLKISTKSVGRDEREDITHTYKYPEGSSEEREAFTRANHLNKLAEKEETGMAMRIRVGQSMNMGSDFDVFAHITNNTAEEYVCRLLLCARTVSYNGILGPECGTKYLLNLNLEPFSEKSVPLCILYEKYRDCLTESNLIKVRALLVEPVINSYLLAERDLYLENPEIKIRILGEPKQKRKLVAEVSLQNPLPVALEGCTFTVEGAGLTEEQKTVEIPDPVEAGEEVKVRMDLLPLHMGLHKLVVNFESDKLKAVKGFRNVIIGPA
Nature of the test: dynamic light scattering; 0.2 mg/ml inhibitor-bound protein in 20 mM Tris pH 7.2, 150 mM NaCl with 9 mM (also 5 mM and 2.5 mM) CaCl2, 37°C; both purified.

Test [5] deals with T3, Inactive, inhibitor-bound TG2 produced …. Nature of the test: cross-linking; BS3 (0.5 mM) capture of non-covalent complexes; DP3-3-treated protein pre-incubated with 5 mM CaCl2 for 30 min at 37°C in 20 mM HEPES pH 7.5, 150 mM NaCl; SDS-PAGE; both purified.

These are yes or no findings as the source states them, for the method shown. Some results given as binding are weak or reduced against the parent protein; the word gives no strength.

B1: TG2 pretreated with the active-site inhibitor DP3-3 (BS3 capture of Fig 2D), P21980 1-687 (enzyme)
chain: MAEELVLERCDLELETNGRDHHTADLCREKLVVRRGQPFWLTLHFEGRNYEASVDSLTFSVVTGPAPSQEAGTKARFPLRDAVEEGDWTATVVDQQDCTLSLQLTTPANAPIGLYRLSLEASTGYQGSSFVLGHFILLFNAWCPADAVYLDSEEERQEYVLTQQGFIYQGSAKFIKNIPWNFGQFEDGILDICLILLDVNPKFLKNAGRDCSRRSSPVYVGRVVSGMVNCNDDQGVLLGRWDNNYGDGVSPMSWIGSVDILRRWKNHGCQRVKYGQCWVFAAVACTVLRCLGIPTRVVTNYNSAHDQNSNLLIEYFRNEFGEIQGDKSEMIWNFHCWVESWMTRPDLQPGYEGWQALDPTPQEKSEGTYCCGPVPVRAIKEGDLSTKYDAPFVFAEVNADVVDWIQQDDGSVHKSINRSLIVGLKISTKSVGRDEREDITHTYKYPEGSSEEREAFTRANHLNKLAEKEETGMAMRIRVGQSMNMGSDFDVFAHITNNTAEEYVCRLLLCARTVSYNGILGPECGTKYLLNLNLEPFSEKSVPLCILYEKYRDCLTESNLIKVRALLVEPVINSYLLAERDLYLENPEIKIRILGEPKQKRKLVAEVSLQNPLPVALEGCTFTVEGAGLTEEQKTVEIPDPVEAGEEVKVRMDLLPLHMGLHKLVVNFESDKLKAVKGFRNVIIGPA
modifications: here or on the partner: active site covalently linked to the inhibitor Ac-P-DON-LPF-NH2 (DP3-3); active site covalently linked to the inhibitor Ac-P-DON-LPF-NH2 (DP3-3)
B1: the binding entry in test [1] and in test [2] was “binds” each time.

B2: Full length E. coli-produced TG2 (active), P21980 1-687 (enzyme)
chain: MAEELVLERCDLELETNGRDHHTADLCREKLVVRRGQPFWLTLHFEGRNYEASVDSLTFSVVTGPAPSQEAGTKARFPLRDAVEEGDWTATVVDQQDCTLSLQLTTPANAPIGLYRLSLEASTGYQGSSFVLGHFILLFNAWCPADAVYLDSEEERQEYVLTQQGFIYQGSAKFIKNIPWNFGQFEDGILDICLILLDVNPKFLKNAGRDCSRRSSPVYVGRVVSGMVNCNDDQGVLLGRWDNNYGDGVSPMSWIGSVDILRRWKNHGCQRVKYGQCWVFAAVACTVLRCLGIPTRVVTNYNSAHDQNSNLLIEYFRNEFGEIQGDKSEMIWNFHCWVESWMTRPDLQPGYEGWQALDPTPQEKSEGTYCCGPVPVRAIKEGDLSTKYDAPFVFAEVNADVVDWIQQDDGSVHKSINRSLIVGLKISTKSVGRDEREDITHTYKYPEGSSEEREAFTRANHLNKLAEKEETGMAMRIRVGQSMNMGSDFDVFAHITNNTAEEYVCRLLLCARTVSYNGILGPECGTKYLLNLNLEPFSEKSVPLCILYEKYRDCLTESNLIKVRALLVEPVINSYLLAERDLYLENPEIKIRILGEPKQKRKLVAEVSLQNPLPVALEGCTFTVEGAGLTEEQKTVEIPDPVEAGEEVKVRMDLLPLHMGLHKLVVNFESDKLKAVKGFRNVIIGPA
For B2, the binding entry in test [3] is reported as “binds”.

B3: Inactive, inhibitor-bound TG2 produced in E. coli (TG2-DP3-3), P21980 1-687 (enzyme)
chain: MAEELVLERCDLELETNGRDHHTADLCREKLVVRRGQPFWLTLHFEGRNYEASVDSLTFSVVTGPAPSQEAGTKARFPLRDAVEEGDWTATVVDQQDCTLSLQLTTPANAPIGLYRLSLEASTGYQGSSFVLGHFILLFNAWCPADAVYLDSEEERQEYVLTQQGFIYQGSAKFIKNIPWNFGQFEDGILDICLILLDVNPKFLKNAGRDCSRRSSPVYVGRVVSGMVNCNDDQGVLLGRWDNNYGDGVSPMSWIGSVDILRRWKNHGCQRVKYGQCWVFAAVACTVLRCLGIPTRVVTNYNSAHDQNSNLLIEYFRNEFGEIQGDKSEMIWNFHCWVESWMTRPDLQPGYEGWQALDPTPQEKSEGTYCCGPVPVRAIKEGDLSTKYDAPFVFAEVNADVVDWIQQDDGSVHKSINRSLIVGLKISTKSVGRDEREDITHTYKYPEGSSEEREAFTRANHLNKLAEKEETGMAMRIRVGQSMNMGSDFDVFAHITNNTAEEYVCRLLLCARTVSYNGILGPECGTKYLLNLNLEPFSEKSVPLCILYEKYRDCLTESNLIKVRALLVEPVINSYLLAERDLYLENPEIKIRILGEPKQKRKLVAEVSLQNPLPVALEGCTFTVEGAGLTEEQKTVEIPDPVEAGEEVKVRMDLLPLHMGLHKLVVNFESDKLKAVKGFRNVIIGPA
modifications: here or on the partner: active site covalently linked to the inhibitor Ac-P-DON-LPF-NH2 (DP3-3); active site covalently linked to the inhibitor Ac-P-DON-LPF-NH2 (DP3-3)
With B3, the binding entry in test [4] and in test [5] was “binds” in each case.
